The whole screen tested about 310,000 compounds, of which about 14,000 (4.5%) showed an effect of 50% or more. The effect is printed as a negative number. The list shows a part of the results.
These compounds were tested against human ether-à-go-go-related gene (hERG) potassium channel (human, UniProt Q12809) (assay: primary screen, population patch clamp on CHO cells stably expressing hERG).
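Further: peak tail current of the secondary pulse compared with the same well before compound.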

human ether-à-go-go-related gene (hERG) potassium channel, sequence (Q12809 whole entry, looked up): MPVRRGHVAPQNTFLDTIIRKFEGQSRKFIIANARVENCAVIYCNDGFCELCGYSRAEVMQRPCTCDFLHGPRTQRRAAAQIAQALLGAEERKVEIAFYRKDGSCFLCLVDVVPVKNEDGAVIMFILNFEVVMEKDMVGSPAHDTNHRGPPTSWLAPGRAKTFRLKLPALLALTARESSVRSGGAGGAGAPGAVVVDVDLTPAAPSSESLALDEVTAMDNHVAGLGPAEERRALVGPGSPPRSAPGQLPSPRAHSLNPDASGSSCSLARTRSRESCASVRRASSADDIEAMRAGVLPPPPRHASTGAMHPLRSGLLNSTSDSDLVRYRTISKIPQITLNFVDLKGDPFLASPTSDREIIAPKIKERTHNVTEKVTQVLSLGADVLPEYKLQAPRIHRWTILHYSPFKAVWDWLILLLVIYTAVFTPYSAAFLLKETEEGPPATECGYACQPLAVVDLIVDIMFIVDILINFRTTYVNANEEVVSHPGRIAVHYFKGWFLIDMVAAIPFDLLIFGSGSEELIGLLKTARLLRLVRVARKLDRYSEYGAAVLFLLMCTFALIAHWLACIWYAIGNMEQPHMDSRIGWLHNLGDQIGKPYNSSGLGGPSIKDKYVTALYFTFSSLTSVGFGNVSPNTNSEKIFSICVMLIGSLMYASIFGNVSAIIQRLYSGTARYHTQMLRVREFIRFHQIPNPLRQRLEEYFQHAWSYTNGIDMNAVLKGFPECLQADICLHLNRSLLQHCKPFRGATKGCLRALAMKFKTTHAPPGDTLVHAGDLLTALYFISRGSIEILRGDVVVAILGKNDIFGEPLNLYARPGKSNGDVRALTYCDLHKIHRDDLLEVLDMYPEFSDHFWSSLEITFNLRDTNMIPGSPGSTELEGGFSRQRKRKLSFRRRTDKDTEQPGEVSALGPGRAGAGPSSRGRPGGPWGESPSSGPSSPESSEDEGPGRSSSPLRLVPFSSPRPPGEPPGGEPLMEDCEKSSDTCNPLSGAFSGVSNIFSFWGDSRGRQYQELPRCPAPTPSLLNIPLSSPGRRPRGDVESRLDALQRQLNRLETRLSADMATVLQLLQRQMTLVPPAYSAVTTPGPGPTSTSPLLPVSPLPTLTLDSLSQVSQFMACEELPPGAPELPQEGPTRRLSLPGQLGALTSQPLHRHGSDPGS

| Compound | hERG current change (%, negative = inhibition) at 10uM [%] |
| --- | --- |
| COc1ccccc1CNC(=O)c1cc2c(s1)CS(=O)(=O)C2 | 10.3 |
| O=C(N/N=C/c1ccco1)C1(O)c2ccccc2-c2ccccc21 | 10.6 |
| O=C(Cc1ccccc1)N1CCC(c2ccccc2)C1 (stereo not drawn) | 4.65 |
| COCCC(=O)N1CCC(Oc2ccc(C(=O)NCCn3cccn3)cc2)CC1 | 3.04 |
| CC1=CCC(C(=O)O)(C(=O)N/N=C/c2cccs2)C(c2ccc([N+](=O)[O-])cc2)C1 (stereo not drawn) | -13.2 |
| Cc1cc(=O)[nH]c(Nc2cccc(Br)c2)n1 | 12.4 |
| CN(c1ccccc1C(=O)Nc1ccc(CC#N)cc1)S(=O)(=O)c1ccccc1 | -1.83 |
| COc1ccc(S(=O)(=O)N2CCC(C(=O)NCCc3ccc4c(c3)OCO4)CC2)cc1 | -43.2 |
| O=C(N/N=C/C(Br)=C/c1ccccc1)c1cccnc1 | -31.3 |
| Cc1cc(NC(=O)CSc2nnc(-c3c[nH]c4ccccc34)n2-c2ccc(F)cc2)no1 | 14.2 |
| O=C(Nc1cc(Cl)ccc1Cl)c1cc(-c2ccco2)on1 | 8.47 |
| CCC(CO)[n+]1c(C)cc(/C=C2\Sc3ccccc3N2Cc2ccccc2)cc1C.[Br-] (stereo not drawn) | -75.6 |
| COc1ccc(-c2nc3cc(C)ccn3c2NC(=O)c2c(F)cccc2Cl)cc1 | 9.01 |
| CCN1CCN(C(CNS(=O)(=O)c2ccc(Cl)cc2)c2cccnc2)CC1 (stereo not drawn) | -74.2 |
| O=C(Cc1ncc(C(F)(F)F)cc1Cl)NCc1ccco1 | -0.471 |
| CCC(CC)c1nnc(NC(=O)c2cc(C(=O)OC)cc([N+](=O)[O-])c2)s1 | 7.7 |
| COc1cc(NC(=O)c2ccc(OC)c([N+](=O)[O-])c2)ccc1NC(=O)c1ccco1 | -3 |
| COc1cc(C(=O)Oc2ccccc2/C=N/NC(=O)c2ccc(Cl)cc2Cl)cc(OC)c1OC | 0.683 |
| Cl.Fc1ccc(Nc2nc(NCc3ccco3)c3ccccc3n2)cc1 | -37.2 |
| O=C(Nc1ccc(N2CCOCC2)c(Cl)c1)c1cccc(-n2cnnc2)c1 | 14.7 |
| S=C(NCC1CCCO1)Nc1cccc(Cl)c1 (stereo not drawn) | 14 |
| COc1ccc(Cl)cc1N/C(N)=N/c1nc(CSc2ccc(C)cc2)cc(=O)[nH]1 | -1.9 |

| Compound | hERG current change (%, negative = inhibition) at 10uM [%] |
| --- | --- |
| C=CC(=O)NC1CC2CCC1(C)C2(C)C (stereo not drawn) | 7.01 |
| Cc1cc(C)cc(C(=O)NCCN2CCOCC2)c1 | 10.6 |
| Cc1c(NC(=O)C2CCCN(S(=O)(=O)c3cnc[nH]3)C2)c(=O)n(-c2ccccc2)n1C (stereo not drawn) | 20.3 |
| CC(C)c1ccc(NC(=O)Cn2ncc3ccccc32)cc1 | 11.7 |
| Cc1cccc(C(=O)NC(C)C(c2cccs2)N2CCOCC2)c1 (stereo not drawn) | 5.25 |
| COCCN1C(=O)C(=O)/C(=C(/O)c2ccc(OC(C)C)cc2)C1c1cccnc1 (stereo not drawn) | 7.45 |
| O=C(CCCc1nc2ccccc2s1)NCc1ccccc1 | -8.92 |
| O=C(CNC(=O)c1ccccc1F)N/N=C/c1cc(Br)ccc1OCc1ccccc1 | -3.96 |
| Cc1cc(NC(=O)c2ccc(Br)cc2)nc(C)n1 | 1 |
| COCc1nc2ccccc2n1CCCOc1ccccc1 | -23 |
| CC(C)CCc1noc(CN(C)CC2CCN(Cc3ccccc3)CC2)n1 | -47.1 |
| COC(=O)CCn1nnc(-c2cccs2)n1 | -6.21 |
| NC(=O)[C@@H]1CCCN1Cc1nc(-c2cccs2)no1 | -0.852 |
| Nc1ccc(SCCN2C(=O)c3ccccc3C2=O)cc1 | -1.22 |
| COc1ccc(Cn2nnnc2CN2CCC(c3nc4ccccc4s3)CC2)cc1 | -30.1 |
| CN1/C(=C\C(=S)NC(=O)c2ccc([N+](=O)[O-])cc2)C(C)(C)c2ccccc21 | 24.9 |
| COC(=O)[C@@]1(Cc2ccc(F)cc2)[C@H]2c3cc(C(=O)N4CCCC4)n(CCCNc4ncc(C(F)(F)F)cc4Cl)c3C[C@H]2CN1C(=O)c1ccccc1 | 0.874 |
| S=c1[nH]c2ccc(Cc3ccc4[nH]c(=S)[nH]c4c3)cc2[nH]1 | 21.5 |
| FC(F)(F)c1cccc(CN2CCSCC2)c1 | 11.9 |
| CC/C(=N/NC(=O)c1ccccc1O)c1c(C)[nH]n(-c2ccccc2)c1=O | 6.17 |
| COc1ccc(NC(=O)COc2cc(C)cc(C)c2)cc1S(=O)(=O)N1CCCCC1 | -1.32 |
| Cc1nn(-c2cc(Cl)ccc2N)c(=O)c2ccccc12 | -31.5 |

| Compound | hERG current change (%, negative = inhibition) at 10uM [%] |
| --- | --- |
| CCc1cc(=O)oc2cc(C)cc(OCC(=O)NCc3ccccn3)c12 | -40 |
| CN(C(=O)c1cccc(C#CC(C)(C)O)c1)C1CCCN(Cc2ccccc2F)C1 (stereo not drawn) | 6.94 |
| C=CCn1c(SCC(=O)Nc2ccc3c(c2)OCO3)nc2ccccc2c1=O | -3.64 |
| CC(=O)NC(C)c1ccc(C(=O)CSc2nnc(C3CC3)n2C2CC2)cc1 (stereo not drawn) | 0.712 |
| Cc1cc(C(=O)N/N=C/c2c(C)nn(-c3ccccc3)c2C)c(C)o1 | 3.8 |
| Cc1nc2c(C(=O)NCc3cccs3)cnn2c(C)c1Cc1ccc(F)cc1 | -13 |
| CCC(Oc1ccccc1C)C(=O)Nc1ccc(S(=O)(=O)Nc2cc(C)on2)cc1 (stereo not drawn) | 3.34 |
| O=C(NC1=NCCS1)c1ccccc1F | 0.721 |
| CCCCCCS(=O)Cc1ccccc1 (stereo not drawn) | -5.45 |
| CC(C)(C)OC(=O)CNC(=O)c1[nH]cnc1C(=O)Nc1ccc(CNC(=O)OC(C)(C)C)cc1 | -0.221 |
| O=C(O)CC(Cc1ccc(Br)cc1)C(=O)Nc1ccccc1 (stereo not drawn) | 0.801 |
| CCc1ccc(-c2csc3ncn(CC(=O)N4CCOCC4)c(=O)c23)cc1 | -14.3 |
| CS/C(N)=N/N=C/c1cc(C)ccc1O | 4.28 |
| Cc1ccc2c(C)nc(Nc3ncc4c(n3)CCCC4=O)nc2c1 | -12.4 |
| COc1cccc(C2Nc3ccc4ccccc4c3C3=C2C(=O)CCC3)c1O (stereo not drawn) | 23.5 |
| CCN(CC(=O)Nc1ccc(NC(C)=O)cc1)C(=O)CSC(c1ccccc1)c1ccccc1 | -11.2 |
| CCS(=O)(=O)N1Cc2ccccc2CC1C(=O)Nc1nnc(SCc2ccc(C#N)cc2)s1 (stereo not drawn) | -8.26 |
| C/C(=N\Nc1nc(C)cc(-c2ccccc2)n1)c1ccc(F)cc1 | 16.6 |
| CC1CCCCN1S(=O)(=O)c1ccc(S(=O)(=O)N2CCN(c3ccccc3)CC2)cc1 (stereo not drawn) | -5.68 |
| CC(=C/c1ccc(C(C)C)cc1)/C=N/NC(=O)Cn1nc(C)cc1C | 11.1 |
| CC(C)Cc1ccc(S(=O)(=O)NCC2CCCO2)cc1 (stereo not drawn) | 5.89 |
| CCCC(C(=O)Nc1ccc(C)c(S(=O)(=O)N2CCOCC2)c1)c1ccccc1 (stereo not drawn) | -47.7 |

| Compound | hERG current change (%, negative = inhibition) at 10uM [%] |
| --- | --- |
| CC(C)CCNC(=O)C1CC2Cn3c(nc4cc(Cl)c(Cl)cc43)C2N1C (stereo not drawn) | -56 |
| CCOC(=O)c1c(-c2ccco2)csc1NC(=O)CSc1nnc(N)s1 | 0.206 |
| CC(Sc1nnc(C(F)(F)F)n1C)C(=O)Nc1ccc(S(N)(=O)=O)cc1 (stereo not drawn) | -20.9 |
| Cn1ccc(C(=O)Nc2ccc3c(c2)OCCO3)n1 | 21.9 |
| O=c1[nH]c2ccccc2c2cn(-c3ccccc3)nc12 | 21.1 |
| COc1ccc(C2CC(c3c(Cl)cccc3Cl)n3nc(N)nc3N2)cc1 (stereo not drawn) | 0.0331 |
| COc1ccc(-c2cc(N3C(=O)Nc4ccccc4N3O)n[nH]2)c(OC)c1 | 7.27 |
| O=C(NCc1ccccc1)c1onc(CSc2ccc(F)cc2)c1C(=O)NCCCN1CCOCC1 | -73.9 |
| COc1ccc(-n2ccc(-c3nn(-c4cccc(C(F)(F)F)c4)ccc3=O)n2)cc1 | -45.7 |
| CCOC(=O)c1ccc(NCC(O)COc2ccccc2)cc1 (stereo not drawn) | -20.4 |
| COC(=O)c1ccccc1NC(=O)NCCc1ccccc1OC.Cl | 16.1 |
| FC(F)(F)c1cccc(NC(=S)Nc2ccc(Cl)c(Cl)c2)c1 | 21.4 |
| O=Cc1ccc(N2N=C(c3ccccc3)CC2c2ccccc2)cc1 (stereo not drawn) | 24.3 |
| COc1ccc(NC2CCCN(C(=O)C3=NN(C)C(=O)CC3)C2)cc1OC (stereo not drawn) | 53.4 |
| Cc1nn(Cc2noc(C(=O)NCc3ccc4c(c3)OCO4)n2)c(C)c1Br | -21.3 |
| COC1OC(COC(=O)c2ccccc2)C(OC(=O)c2ccccc2)C1OC(=O)c1ccccc1 (stereo not drawn) | 16.6 |
| Cc1cc(SCc2ccccc2Cl)nc(=O)[nH]1 | 7.38 |
| COc1ccccc1CNC(=O)CSc1nc(C)cs1 | 11.7 |
| O=C(Nc1cc2c3c(c1)CC(=O)N3CCC2)c1ccco1 | -17.8 |
| CCOc1ccc(OCCSc2nc3ccccc3[nH]2)cc1 | -0.985 |
| CCOC(=O)c1[nH]c2ccc(OC)cc2c1N=CN(C)C | -7.13 |

— article PMC4336329 (PLoS ONE, 2015)
